The values below come from PubChem BioAssay AID1851 (National Center for Advancing Translational Sciences (NCATS), 2009).

The list shows a part of the results, in another mix than the full data. Records with an inconclusive call do not appear. Activity calls are given as the source filed them. The call rests on the fitted dose curve; in most records, active means well fitted curve in the direction sought with a large enough effect; inconclusive means small, poorly fitted or top-dose-only effect, or effect the other way; inactive means no such curve, though single readings can be large or run the other way.

The target in the assay is Cytochrome P450 2C9 (Homo sapiens) (UniProt P11712). The assay can be described thus: Cytochrome panel assay with activity outcomes. To be noted: recombinant CYP, pro-luciferin dealkylation, luminescence, p450-cyp2c9; series mostly up to 25.6 µM.
Sequence of UniProt P11712 (P11712 whole entry, looked up): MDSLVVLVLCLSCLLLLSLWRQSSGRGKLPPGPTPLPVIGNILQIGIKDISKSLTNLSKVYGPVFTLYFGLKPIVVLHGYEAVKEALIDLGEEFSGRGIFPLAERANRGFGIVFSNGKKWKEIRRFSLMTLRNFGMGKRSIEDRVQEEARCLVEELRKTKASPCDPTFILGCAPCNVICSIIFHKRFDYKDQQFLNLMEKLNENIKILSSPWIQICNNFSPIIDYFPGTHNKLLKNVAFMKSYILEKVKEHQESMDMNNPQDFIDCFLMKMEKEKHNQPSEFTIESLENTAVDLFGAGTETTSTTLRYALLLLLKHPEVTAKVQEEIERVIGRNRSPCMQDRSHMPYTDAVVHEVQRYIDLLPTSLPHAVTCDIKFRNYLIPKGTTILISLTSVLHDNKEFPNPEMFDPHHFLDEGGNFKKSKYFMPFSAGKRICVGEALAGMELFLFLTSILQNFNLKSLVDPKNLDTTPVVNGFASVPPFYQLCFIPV
Broadly, the AC50 is the concentration giving half of the maximal activity seen. As to `Nc1nc2ccc(OC(F)(F)F)cc2s1`, the AC50 result is “inactive”.

In the case of `O=S(=O)(c1ccccc1)N1CCN(S(=O)(=O)c2ccccc2)c2ccccc21`, the AC50 is active: 0.251 µM.

For the molecule `CC[C@](C)(CN(C)C)OC(=O)c1ccccc1`, the AC50 result was “inactive”.

`C[C@@H]1C[C@H]2[C@@H]3C[C@H](F)C4=CC(=O)C=C[C@@]4(C)[C@]3(F)[C@H](O)C[C@]2(C)[C@@]1(O)C(=O)CO`: the AC50 entry was “inactive”.

Take `CCOc1cc(/C=N/n2cnnc2)ccc1OC(=O)c1cccc([N+](=O)[O-])c1`: the AC50 was active: 14.1 µM.

For the molecule `Cc1ccc(OCCNC(=O)/C=C/c2ccc([N+](=O)[O-])cc2)cc1C`, the AC50 result is “inactive”.

Consider `COC(=O)C1=C(C(=O)OC)C(c2cc(Cl)ccc2O)c2sc(=O)[nH]c2S1` (configuration not stated), for which the concentration at half-maximal activity (AC50) is active: 4.47 µM.
